# In the supplement of paper PMC10037445:
# In all, about 2,900 compounds were measured (“NF-kB SEAP reporter activity, fold change vs agonist alone”: median about 0.99, highest 2% from about 2.6 on). This is one part of the list.
# Columns and labels:
# RAW-Dual [1] = test: NF-kB SEAP reporter activity, fold change vs agonist alone; higher = enhanced NF-kB activity
# Method in brief: (§1)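 Supernatant from RAW-Dual macrophages was read after 20 hours for IRF by QuantiLuc luminescence and for NF-κB by QuantiBlue absorbance at 620 nm. The cells (50,000 cells/well in DMEM, 384-well plates, 37 °C, 5% CO2) had received 50 nL of library stock by pin tool and, 1 h later, a PRR agonist. Reporter activity is expressed relative to agonist-alone wells as fold change, and wells were flagged cytotoxic if IncuCyte confluency was under 70% of agonist controls in both mask sets.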
# RAW-Dual [2] = test: NF-kB SEAP reporter activity, fold change vs agonist alone; cytotoxicity flag (confluency mask): not cytotoxic; higher = enhanced NF-kB activity
# Method in brief: as §1
# RAW-Dual [3] = test: NF-kB SEAP reporter activity, fold change vs agonist alone; cytotoxicity flag (confluency mask): cytotoxic (confluency <70% of control); higher = enhanced NF-kB activity
# Method in brief: as §1
# [4] = library stock concentration (final ~1000-fold dilution): 10 mM, cytotoxicity flag (confluency mask): not cytotoxic, agonist: Imiquimod (TLR7) […]
# [5] = library stock concentration (final ~1000-fold dilution): 10 mM, cytotoxicity flag (confluency mask): not cytotoxic, agonist: MPLA (TLR4) […]
# [6] = agonist: ODN 1826 (TLR9) 0.5 ug/mL
# [7] = agonist: Pam2CSK4 (TLR2/6) 0.1 ug/mL
# [8] = agonist: Pam3CSK4 (TLR2/1) 0.1 ug/mL
smiles,measurement,setting,value
NC(=O)CCCSc1nc(N)nc(-c2c(Cl)cc3c4c(cccc24)COC3)n1,NF-kB SEAP reporter activity,RAW-Dual [1]; [4],0.163
same,NF-kB SEAP reporter activity,RAW-Dual [1]; [5],0.388
NC(=O)CCCSc1nc(N)nc(-c2c(Cl)cc3c4c(cccc24)COC3)n1 (library stock concentration (final ~1000-fold dilution): 10 mM),NF-kB SEAP reporter activity,RAW-Dual [2]; agonist: LPS (TLR4) 0.1 ug/mL,0.263
same,NF-kB SEAP reporter activity,RAW-Dual [2]; [6],0.199
same,NF-kB SEAP reporter activity,RAW-Dual [2]; [7],0.076
same,NF-kB SEAP reporter activity,RAW-Dual [2]; [8],0.147
COC(=O)NC(C(=O)N1CC2(CC2)CC1c1ncc(-c2ccc3c(c2)C(F)(F)c2cc(-c4ccc5nc(C6C7CCC(C7)N6C(=O)C(NC(=O)OC)C(C)C)[nH]c5c4)ccc2-3)[nH]1)C(C)C (stereo unspecified),NF-kB SEAP reporter activity,RAW-Dual [1]; [4],0.878
same,NF-kB SEAP reporter activity,RAW-Dual [1]; [5],0.977
COC(=O)NC(C(=O)N1CC2(CC2)CC1c1ncc(-c2ccc3c(c2)C(F)(F)c2cc(-c4ccc5nc(C6C7CCC(C7)N6C(=O)C(NC(=O)OC)C(C)C)[nH]c5c4)ccc2-3)[nH]1)C(C)C (stereo unspecified) (library stock concentration (final ~1000-fold dilution): 10 mM),NF-kB SEAP reporter activity,RAW-Dual [2]; agonist: LPS (TLR4) 0.1 ug/mL,1.08
same,NF-kB SEAP reporter activity,RAW-Dual [2]; [6],1.06
same,NF-kB SEAP reporter activity,RAW-Dual [2]; [7],0.522
same,NF-kB SEAP reporter activity,RAW-Dual [2]; [8],0.529
CN(C)CC(=O)Nc1ccc2[nH]c(=O)c3ccccc3c2c1.Cl (library stock concentration (final ~1000-fold dilution): 10 mM),NF-kB SEAP reporter activity,RAW-Dual [2]; agonist: LPS (TLR4) 0.1 ug/mL,1.02
same,NF-kB SEAP reporter activity,RAW-Dual [2]; [6],0.808
same,NF-kB SEAP reporter activity,RAW-Dual [2]; [7],1.04
same,NF-kB SEAP reporter activity,RAW-Dual [2]; [8],1.37
CN(C)CC(=O)Nc1ccc2[nH]c(=O)c3ccccc3c2c1.Cl,NF-kB SEAP reporter activity,RAW-Dual [1]; [4],1.02
same,NF-kB SEAP reporter activity,RAW-Dual [1]; [5],0.949
CS(=O)(=O)O.O=C(Nc1cccc(Cl)c1)Nc1ncc(CCNc2ncnc3ccsc23)s1 (library stock concentration (final ~1000-fold dilution): 10 mM),NF-kB SEAP reporter activity,RAW-Dual [3]; agonist: LPS (TLR4) 0.1 ug/mL,1
same,NF-kB SEAP reporter activity,RAW-Dual [3]; [6],0.54
same,NF-kB SEAP reporter activity,RAW-Dual [3]; [7],0.153
same,NF-kB SEAP reporter activity,RAW-Dual [3]; [8],0.292
CS(=O)(=O)O.O=C(Nc1cccc(Cl)c1)Nc1ncc(CCNc2ncnc3ccsc23)s1,NF-kB SEAP reporter activity,"RAW-Dual [1]; library stock concentration (final ~1000-fold dilution): 10 mM, cytotoxicity flag (confluency mask): cytotoxic (confluency <70% of control), agonist: Imiquimod (TLR7) […]",0.503
same,NF-kB SEAP reporter activity,"RAW-Dual [1]; library stock concentration (final ~1000-fold dilution): 10 mM, cytotoxicity flag (confluency mask): cytotoxic (confluency <70% of control), agonist: MPLA (TLR4) […]",0.512
Br.COc1ccc2c3c1OC1CC(O)C=CC31CCN(C)C2 (stereo unspecified) (library stock concentration (final ~1000-fold dilution): 10 mM water),NF-kB SEAP reporter activity,RAW-Dual [2]; agonist: LPS (TLR4) 0.1 ug/mL,1.12
same,NF-kB SEAP reporter activity,RAW-Dual [2]; [6],1.02
same,NF-kB SEAP reporter activity,RAW-Dual [2]; [7],1.12
same,NF-kB SEAP reporter activity,RAW-Dual [2]; [8],1.16
Br.COc1ccc2c3c1OC1CC(O)C=CC31CCN(C)C2 (stereo unspecified),NF-kB SEAP reporter activity,"RAW-Dual [1]; library stock concentration (final ~1000-fold dilution): 10 mM water, cytotoxicity flag (confluency mask): not cytotoxic, agonist: Imiquimod (TLR7) […]",0.936
same,NF-kB SEAP reporter activity,"RAW-Dual [1]; library stock concentration (final ~1000-fold dilution): 10 mM water, cytotoxicity flag (confluency mask): not cytotoxic, agonist: MPLA (TLR4) […]",0.997
CN(C(=O)n1cnc(-c2ccc[n+]([O-])c2)c1)C1CCCCC1,NF-kB SEAP reporter activity,RAW-Dual [1]; [4],0.995
same,NF-kB SEAP reporter activity,RAW-Dual [1]; [5],1.03
CN(C(=O)n1cnc(-c2ccc[n+]([O-])c2)c1)C1CCCCC1 (library stock concentration (final ~1000-fold dilution): 10 mM),NF-kB SEAP reporter activity,RAW-Dual [2]; agonist: LPS (TLR4) 0.1 ug/mL,1.04
same,NF-kB SEAP reporter activity,RAW-Dual [2]; [6],0.925
same,NF-kB SEAP reporter activity,RAW-Dual [2]; [7],0.966
same,NF-kB SEAP reporter activity,RAW-Dual [2]; [8],1.01
